The full ranking holds about 110,000 compounds; the median of “z-score” is about -0.1, and the highest 2% start at about 2. Some of the results follow.

This assay has as its target Metabotropic glutamate receptor 8 (Rattus norvegicus) (UniProt P70579). As to the kind of experiment: rat mGluR8 modulators via GIRK flux, primary screen, cell-based, thallium flux, HTS (AID 488969). As to conditions: HEK293 rat mGluR8, GIRK (G protein-gated inwardly rectifying potassium channel) thallium flux, FluoZin2; at 10 µM; stronger effect = higher value; submaximal glutamate (EC20) added with thallium.
Chain of UniProt P70579 (P70579 whole entry, looked up): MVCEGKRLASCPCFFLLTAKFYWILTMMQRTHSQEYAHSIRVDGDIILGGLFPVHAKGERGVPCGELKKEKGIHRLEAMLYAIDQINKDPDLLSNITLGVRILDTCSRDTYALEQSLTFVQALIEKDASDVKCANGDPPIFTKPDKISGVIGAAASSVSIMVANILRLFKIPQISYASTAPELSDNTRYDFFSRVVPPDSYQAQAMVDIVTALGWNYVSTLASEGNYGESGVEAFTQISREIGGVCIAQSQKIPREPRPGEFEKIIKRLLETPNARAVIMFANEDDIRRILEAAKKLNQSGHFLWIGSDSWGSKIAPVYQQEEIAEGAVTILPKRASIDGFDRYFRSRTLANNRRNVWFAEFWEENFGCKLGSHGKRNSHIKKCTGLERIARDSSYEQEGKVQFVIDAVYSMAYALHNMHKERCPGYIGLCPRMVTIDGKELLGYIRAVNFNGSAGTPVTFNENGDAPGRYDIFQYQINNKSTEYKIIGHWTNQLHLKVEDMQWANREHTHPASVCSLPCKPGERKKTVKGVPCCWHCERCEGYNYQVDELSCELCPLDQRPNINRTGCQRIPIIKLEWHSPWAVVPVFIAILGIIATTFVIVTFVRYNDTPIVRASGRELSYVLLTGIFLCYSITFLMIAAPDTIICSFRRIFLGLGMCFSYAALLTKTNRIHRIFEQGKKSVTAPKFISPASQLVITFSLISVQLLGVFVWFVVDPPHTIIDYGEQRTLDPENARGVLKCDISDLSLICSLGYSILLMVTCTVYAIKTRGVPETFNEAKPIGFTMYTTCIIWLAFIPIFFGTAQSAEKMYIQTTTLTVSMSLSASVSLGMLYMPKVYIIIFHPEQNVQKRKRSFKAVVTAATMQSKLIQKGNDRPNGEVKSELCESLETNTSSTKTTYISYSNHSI
`Cc1cccc(N2CCN(C(=S)c3ccc([N+](=O)[O-])cc3)CC2)c1` displayed a z-score of -0.193.
`CC(C)(C)C(=O)CC1(O)C(=O)N(Cc2ccccc2)c2ccccc21` (configuration not stated) yielded a z-score of -0.179.
For `O=C(c1oc(=O)c2ccccc2c1-c1ccccc1)N1CCN(C2CCCCC2)CC1`, the z-score is -0.07.
With `COC(=O)/C(C(C)=O)=C(\C=C\N(C)C)N(C)C` the figure was 0.0491; with `CCN1C(=O)N(c2cccc3ccccc23)C(C)=CC1(C)C`, 0.0711; with `COC(=O)CN1C(=O)S/C(=C/c2ccc(N3CCCCC3)o2)C1=O`, -0.428.
In turn, `COc1ccc(CC(=O)N2CCN(C(=O)c3ccco3)CC2)cc1` yielded a z-score of 0.485.
With `Cc1nc(OCc2ccccc2)c2ccccc2n1` the figure was 0.297; with `CC(c1ccco1)N(C(=O)c1ccc(C#N)cc1)c1ccccn1` (configuration not stated), -0.175.
`COc1ccc(/C=C/c2nc3ccccc3n2Cc2ccccc2OC)cc1` displayed a z-score of -1.02.
As for `CC(=O)NCCn1c(SCc2cc(F)ccc2F)nc2ccccc2c1=O`, the z-score turned out to be 0.298.
`CSCCC(NC(=O)c1ccccc1)C(=O)OCC(=O)Nc1ccc(C)c(Cl)c1` (configuration not stated) displayed a z-score of -0.0955.
The compound `Cc1ccccc1CS(=O)(=O)CCC(=O)NCc1ccccn1` registered a z-score of -0.0271.
On to `COc1ccc(-c2nnc3n2C(C)(C)Cc2cc(OC)c(OC)cc2-3)cc1`, for which the z-score is 0.232.
As for `COc1ccc(OC)c(C2C=C(C34CC5CC(CC(C5)C3)C4)NC(=S)N2)c1` (configuration not stated), the z-score came to 0.0259.
Consider `CC1(C)CC(=O)C(C=NCc2ccc3c(c2)OCO3)=C(O)C1`, for which the z-score stood at 1.27.
`CN1CCN(C(=S)Nc2cccc(C(F)(F)F)c2)CC1` had a z-score of -0.213.
The result for `CCSc1nnc(CNC(=O)C23CC4CC(CC(C4)C2)C3)n1C1CCCCC1` reads 0.209; that for `C=C(C)COc1ccc(-c2[nH]ncc2Oc2ccccc2OC)c(O)c1`, -1.1; that for `CCCNC(=O)N[C@@H](CCSC)C(=O)OC`, -0.469.
With `O=C(Nc1ccc(S(=O)(=O)NCCc2ccccc2)cc1)c1ccco1` the figure was 0.183; with `Cc1ccc(C(=O)CC2(O)C(=O)N(Cc3ccccc3Cl)c3ccccc32)o1` (configuration not stated), -0.825.
For the compound `CC1(C)Oc2ccc3ccc(=O)oc3c2/C(=C/NC2CCCCC2)C1=O`, the z-score is -0.108.
As for `O=C(N/N=C/c1ccccc1OCc1ccccc1)c1cccnc1`, the z-score is -0.175.
The result for `CCOC(=O)c1ccc2c(c1)n(CC)c(/C=C/N(C)c1ccccc1)[n+]2CC` reads -0.0543.
Take `Cc1ccc(S(=O)(=O)NNC(=O)c2sc(=S)n(C)c2C)cc1`: the z-score is -0.138.
Compound `O=[N+]([O-])c1cccc(S(=O)(=O)N2CCCCCC2)c1` registered a z-score of -0.293.
Regarding `COc1cc(C(=S)N2CCOCC2)cc(OC)c1OC(=O)Cc1ccc(F)cc1`, the z-score was 0.0628.
In turn, `O=C(CSc1ccc(-c2ccco2)nn1)NCc1ccc(Cl)cc1` showed a z-score of -0.312.
Take `Cn1nnc(NC(=O)c2ccco2)n1`: the z-score was 0.813.
`CCSc1nnc([C@H](Cc2ccccc2)NC(=O)OC(C)(C)C)o1` came in with a z-score of 1.57.
For `Cc1nnc(SCC(=O)N2CCCCC2)s1`, the z-score came to 0.676.
Consider `Cc1ccc(S(=O)(=O)CC(=O)NC(C)(C)C)cc1`, for which the z-score is -0.0372.
With `COc1ccc(NC(=O)CNS(=O)(=O)c2ccc(Cl)cc2)cc1` the figure was 0.142.
Regarding `C=CCn1c(=O)/c(=C2/SC(C)=C(C)N2CC)s/c1=C1/C(=O)N(CC)C(=S)N1c1ccccc1`, the z-score is -0.0202.
Take `N#CC1=C(N)OC2=C(CCC/C2=C/c2ccoc2)C1c1ccoc1` (configuration not stated): the z-score is -0.174.
`O=C(Nc1ccccc1Cl)c1cc(S(=O)(=O)N2CCCC(C(=O)O)C2)ccc1F` (configuration not stated) had a z-score of -0.787.
The result for `CCSCC1COC(c2cccn2Cc2ccc(C)cc2)=N1` (configuration not stated) reads 0.0738; that for `CCCCn1cnc2c1c(=O)[nH]c(=O)n2CCCC`, -0.367.
Regarding `C=CCn1c(SCC(=O)Nc2cc(C)ccc2OC)nnc1-c1ccco1`, the z-score is -0.945.
Compound `CCOC(=O)c1c(NC(=O)Nc2ccccc2)sc(C)c1C` had a z-score of 0.488.
For `COc1ccc(C(=O)Nc2ccc3c(c2)nc(CN2CCN(C(C)=O)CC2)n3C)cc1`, the z-score is -0.602.
`O=c1c2c(nc3c(-c4cccc5ccccc45)c[nH]n13)CCC2` came in with a z-score of -0.52.
`COc1ccc(N(CC(=O)N2c3ccccc3CC2C)S(=O)(=O)c2c(C)noc2C)cc1` (configuration not stated) came in with a z-score of -0.103.
`O=C(c1ccc(CS(=O)(=O)c2c(Cl)cccc2Cl)o1)N1CCCC1` had a z-score of -0.558.
In the case of `CCC(C)c1ccc(OCC(=O)O)cc1` (configuration not stated), the z-score is -0.502.
Take `CCOC(=O)N1CCN(C(=O)c2cnsn2)CC1`: the z-score is -0.305.
Take `Cc1ccc(S(=O)(=O)N(CCCO)Cc2cc3c(C)ccc(C)c3[nH]c2=O)cc1`: the z-score was -0.198.
For the compound `O=C(NC1CCCCC1)c1ccc(CN2CCOCC2)cc1`, the z-score was 0.501.
As for `COc1ccc(-c2ccnc3nc(N4CCOCC4)nn23)cc1`, the z-score was -0.177.
In turn, `O=C(N/N=C/c1ccc(Cl)cc1Cl)c1cccc(F)c1` came in with a z-score of -0.0366.
On to `CCOC(=O)CN(C(=O)CSc1nnc(CNc2ccc(F)cc2)n1CC)c1ccc(F)cc1`, for which the z-score was -0.599.
With `Cc1ccc(Oc2ccc(-c3nc(N)nc(N)n3)cc2)cc1` the figure was 0.224.
Regarding `NNC(=O)c1cn2ccccc2n1`, the z-score worked out at 0.132.
Compound `c1ccc(-c2nc(-n3nc4ccccc4n3)nc3ccccc23)cc1` yielded a z-score of -0.594.
In turn, `CN(C)c1ccc(CNc2ncc(Br)cc2Br)cc1` displayed a z-score of 1.51.
In turn, `CCOc1ccccc1-n1c(N)c(C(N)=O)sc1=S` returned a z-score of 0.182.
On to `O=C(Nc1ccccc1Cl)C1CCCN(S(=O)(=O)c2ccc(F)cc2)C1` (configuration not stated), for which the z-score is -0.181.
Regarding `CC(C(=O)N=c1sc2ccccc2n1C)N1C(=O)C2CC=CCC2C1=O` (configuration not stated), the z-score was 0.889.
The result for `CCOC(=O)Cc1csc(NC(=O)CCS(=O)(=O)Cc2ccccc2)n1` reads -0.291.
In the case of `COc1ccc(N=C2SC(CC(=O)Nc3ccc(OC)cc3OC)C(=O)N2C)cc1` (configuration not stated), the z-score was -1.68.
The compound `CCCCN1C(=O)c2ccc(C(=O)Nc3cccnc3)cc2C1=O` registered a z-score of -0.153.
In turn, `COc1ccc(CNC(=S)Nc2ccc(OC)cc2)cc1` gave a z-score of 0.711.
For `CCC(CC)C(=O)Nc1cccc(C(=O)c2ccccc2)c1`, the z-score was -0.307.
For `CCOc1ccc(NC2=C(Cl)C(=O)N(Cc3ccccc3)C2=O)cc1`, the z-score is -0.0594.
The compound `Cc1ccc2nc3ccc(N4CCCCCCC4)nn3c(=O)c2c1` yielded a z-score of -0.682.
Regarding `Cc1c(NC(=O)Cn2ccc([N+](=O)[O-])n2)c(=O)n(-c2ccccc2)n1C`, the z-score was -0.148.
For `CCCCNC(=O)c1sc(=S)n(-c2ccccc2OC)c1N`, the z-score was -0.359.
For `Cc1cccc(-n2c(-c3csc(C)c3)n[nH]c2=S)c1`, the z-score was found to be 0.189.
The result for `CCC(C)NC(=O)c1ccccc1NC(=O)C(C)N(c1ccccc1)S(C)(=O)=O` (configuration not stated) reads -0.313.
In turn, `O=C(c1cccc(S(=O)(=O)Nc2cccc(C(F)(F)F)c2)c1)N1CCCCC1` returned a z-score of -0.337.
Turning to `CSc1nc(C)c2c(n1)N(c1cccc(C)c1)CC2`, the z-score is -0.25.
